# Measurements: the supplement of paper PMC8728848
# The other results are listed elsewhere or left out.
# B1: SP16664D-bth-476-27-476 (Bacteroides thetaiotaomicron) (protein)
# chain: DDLEVGKNIDESAYSGIYENNAYLRDGKSNLVSKVVELHGETYATTVKMGLSKTPNTATSAKVKIDAAYLETYNKAHNTDFALYPQDLVTFANEGILTVNANTKSAEVEMTIRAGEGLQEDKTYAIPVAISDQSSDITIKDEDAKHCIYLVKDMRNAGDAYKGEGVMQGYLFFEVNDVNPLNTLSFQLENGKLLWDVVVLFAANINYDAEAGRPRVQCNPNVQYLLDNNETLLQPLRRRGVKVLLGLLGNHDITGLAQLSEQGAKDFAREVAQYCKAYNLDGVNYDDEYSNSPDLSNPSLTNPSTAAAARLCYETKQAMPDKLVTVFDWGQMYGVATVDGVDAKEWIDIVVANYGSAAYPIGQMTKKQCSGISMEFNLGGGGSLSASKAQSMIDGGYGWFMGFAPSPAKYGSVFSRLQGGGEVLYGSNVAAPTIFYKKNDPTPYKYPDDL
# Assays:
# Assay in all cases: glycan array binding signal (z-score within array); higher = stronger binding
# Conditions in all cases: glycan notation: IUPAC condensed, linker removed
# [1] = target: Gal(b1-4)GlcNAc(b1-3)Gal(b1-4)GlcNAc(b1-3)Gal(b1-4)GlcNAc(b1-3)Gal(b1-4)GlcNAc(b1-2)Man(a1-3)[Gal(b1-4)GlcNAc(b1-3)Gal(b1-4)GlcNAc(b1-3)Gal(b1-4)GlcNAc(b1-3)Gal(b1-4)GlcNAc(b1-2)Man(a1-6)]Man(b1-4)GlcNAc(b1-4)[Fuc(a1-6)]GlcNAc
# How it was run: (§1)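 Columns mapping to the same glycan were averaged after glycan names were converted to IUPAC-condensed notation. The data come from 3228 arrays in the Consortium for Functional Glycomics database, limited to those with an available protein sequence. Binding is reported as a within-array Z-score averaged across arrays of one protein sequence and across linkers.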
# [2] = target: Gal(b1-4)GlcNAc(b1-3)Gal(b1-4)GlcNAc(b1-3)Gal(b1-4)GlcNAc(b1-3)Gal(b1-4)GlcNAc(b1-2)[Gal(b1-4)GlcNAc(b1-3)Gal(b1-4)GlcNAc(b1-3)Gal(b1-4)GlcNAc(b1-3)Gal(b1-4)GlcNAc(b1-6)]Man(a1-6)[Gal(b1-4)GlcNAc(b1-3)Gal(b1-4)GlcNAc(b1-3)Gal(b1-4)GlcNAc(b1-3)Gal(b1-4)GlcNAc(b1-2)Man(a1-3)]Man(b1-4)GlcNAc(b1-4)[Fuc(a1-6)]GlcNAc
# How it was run: as §1
# [3] = target: Gal(b1-4)GlcNAc(b1-3)Gal(b1-4)GlcNAc(b1-3)Gal(b1-4)GlcNAc(b1-3)Gal(b1-4)GlcNAc(b1-3)Gal(b1-4)GlcNAc(b1-2)Man(a1-3)[Gal(b1-4)GlcNAc(b1-3)Gal(b1-4)GlcNAc(b1-3)Gal(b1-4)GlcNAc(b1-3)Gal(b1-4)GlcNAc(b1-3)Gal(b1-4)GlcNAc(b1-2)Man(a1-6)]Man(b1-4)GlcNAc(b1-4)GlcNAc
# How it was run: as §1
# [4] = target: Gal(b1-4)GlcNAc(b1-3)Gal(b1-4)GlcNAc(b1-3)Gal(b1-4)GlcNAc(b1-3)Gal(b1-4)GlcNAc(b1-3)Gal(b1-4)GlcNAc(b1-2)Man(a1-3)[Gal(b1-4)GlcNAc(b1-3)Gal(b1-4)GlcNAc(b1-3)Gal(b1-4)GlcNAc(b1-3)Gal(b1-4)GlcNAc(b1-3)Gal(b1-4)GlcNAc(b1-2)Man(a1-6)]Man(b1-4)GlcNAc(b1-4)[Fuc(a1-6)]GlcNAc
# How it was run: as §1
# [5] = target: Gal(b1-4)GlcNAc(b1-3)Gal(b1-4)GlcNAc(b1-3)Gal(b1-4)GlcNAc(b1-3)Gal(b1-4)GlcNAc(b1-3)Gal(b1-4)GlcNAc(b1-2)[Gal(b1-4)GlcNAc(b1-3)Gal(b1-4)GlcNAc(b1-3)Gal(b1-4)GlcNAc(b1-3)Gal(b1-4)GlcNAc(b1-3)Gal(b1-4)GlcNAc(b1-6)]Man(a1-6)[Gal(b1-4)GlcNAc(b1-3)Gal(b1-4)GlcNAc(b1-3)Gal(b1-4)GlcNAc(b1-3)Gal(b1-4)GlcNAc(b1-3)Gal(b1-4)GlcNAc(b1-2)Man(a1-3)]Man(b1-4)GlcNAc(b1-4)[Fuc(a1-6)]GlcNAc
# How it was run: as §1
# [6] = target: Gal(b1-4)GlcNAc(b1-3)Gal(b1-4)GlcNAc(b1-3)Gal(b1-4)GlcNAc(b1-3)Gal(b1-4)GlcNAc(b1-3)Gal(b1-4)GlcNAc(b1-3)Gal(b1-4)GlcNAc(b1-2)Man(a1-3)[Gal(b1-4)GlcNAc(b1-3)Gal(b1-4)GlcNAc(b1-3)Gal(b1-4)GlcNAc(b1-3)Gal(b1-4)GlcNAc(b1-3)Gal(b1-4)GlcNAc(b1-3)Gal(b1-4)GlcNAc(b1-2)Man(a1-6)]Man(b1-4)GlcNAc(b1-4)GlcNAc
# How it was run: as §1
# [7] = target: Gal(b1-4)GlcNAc(b1-3)Gal(b1-4)GlcNAc(b1-3)GalNAc
# How it was run: as §1
# [8] = target: Gal(b1-4)GlcNAc(b1-3)Gal(b1-4)GlcNAc(b1-3)[Gal(b1-4)GlcNAc(b1-3)Gal(b1-4)GlcNAc(b1-6)]GalNAc
# How it was run: as §1
# [9] = target: Gal(b1-4)GlcNAc(b1-3)Gal(b1-4)GlcNAc(b1-6)[Gal(b1-3)]GalNAc
# How it was run: as §1
# [10] = target: Gal(b1-4)GlcNAc(b1-3)Gal(b1-4)[Fuc(a1-3)]GlcNAc(b1-3)Gal(b1-4)[Fuc(a1-3)]GlcNAc
# How it was run: as §1
# [11] = target: Gal(b1-4)GlcNAc(b1-3)GalNAc
# How it was run: as §1
# [12] = target: Gal(b1-4)GlcNAc(b1-3)[Fuc(a1-3)GlcNAc(b1-6)]Gal(b1-4)Glc
# How it was run: as §1
# [13] = target: Gal(b1-4)GlcNAc(b1-3)[Gal(b1-4)GlcNAc(b1-6)]Gal(b1-4)GlcNAc
# How it was run: as §1
# [14] = target: Gal(b1-4)GlcNAc(b1-3)[GlcNAc(b1-6)]Gal(b1-4)GlcNAc
# How it was run: as §1
# [15] = target: Gal(b1-4)GlcNAc(b1-6)Gal(b1-4)GlcNAc
# How it was run: as §1
# [16] = target: Gal(b1-4)GlcNAc(b1-6)GalNAc
# How it was run: as §1
# [17] = target: Gal(b1-4)GlcNAc(b1-6)[Gal(b1-3)]GalNAc
# How it was run: as §1
# [18] = target: Gal(b1-4)GlcNAc(b1-6)[Gal(b1-4)GlcNAc(b1-3)]GalNAc
# How it was run: as §1
# [19] = target: Gal(b1-4)GlcNAc6P
# How it was run: as §1
# [20] = target: Gal(b1-6)Gal
# How it was run: as §1
# [21] = target: Gal3S(b1-3)GalNAc
# How it was run: as §1
# [22] = target: Gal3S(b1-3)GlcNAc
# How it was run: as §1
# [23] = target: Gal3S(b1-3)[Fuc(a1-4)]GlcNAc
# How it was run: as §1
# [24] = target: Gal3S(b1-4)Glc
# How it was run: as §1
# [25] = target: Gal3S(b1-4)Glc6S
# How it was run: as §1
# [26] = target: Gal3S(b1-4)GlcNAc
# How it was run: as §1
# [27] = target: Gal3S(b1-4)[Fuc(a1-3)]Glc6S
# How it was run: as §1
# [28] = target: Gal3S(b1-4)[Fuc(a1-3)]GlcNAc
# How it was run: as §1
# [29] = target: Gal3S(b1-4)[Fuc(a1-3)]GlcNAc6S
# How it was run: as §1
# [30] = target: Gal3S4S(b1-4)GlcNAc
# How it was run: as §1
# [31] = target: Gal3S6S(b1-4)GlcNAc
# How it was run: as §1
# [32] = target: Gal3S6S(b1-4)GlcNAc6S
# How it was run: as §1
# [33] = target: Gal4S(b1-4)GlcNAc
# How it was run: as §1
# [34] = target: Gal4S6S(b1-4)GlcNAc
# How it was run: as §1
# [35] = target: Gal6P(b1-4)GlcNAc
# How it was run: as §1
# [36] = target: Gal6S(b1-3)GlcNAc
# How it was run: as §1
# [37] = target: Gal6S(b1-3)GlcNAc6S
# How it was run: as §1
# [38] = target: Gal6S(b1-4)Glc
# How it was run: as §1
binder,measurement,setting,value
B1,glycan array binding signal (z-score),[1],0.161
same,glycan array binding signal (z-score),[2],0.02
same,glycan array binding signal (z-score),[3],0.13
same,glycan array binding signal (z-score),[4],20
same,glycan array binding signal (z-score),[5],0.553
same,glycan array binding signal (z-score),[6],-0.028
same,glycan array binding signal (z-score),[7],-0.091
same,glycan array binding signal (z-score),[8],-0.045
same,glycan array binding signal (z-score),[9],-0.029
same,glycan array binding signal (z-score),[10],-0.138
same,glycan array binding signal (z-score),[11],0.125
same,glycan array binding signal (z-score),[12],-0.118
same,glycan array binding signal (z-score),[13],0.24
same,glycan array binding signal (z-score),[14],0.333
same,glycan array binding signal (z-score),[15],-0.084
same,glycan array binding signal (z-score),[16],-0.123
same,glycan array binding signal (z-score),[17],-0.033
same,glycan array binding signal (z-score),[18],-0.014
same,glycan array binding signal (z-score),[19],-0.159
same,glycan array binding signal (z-score),[20],0.145
same,glycan array binding signal (z-score),[21],-0.141
same,glycan array binding signal (z-score),[22],-0.167
same,glycan array binding signal (z-score),[23],-0.115
same,glycan array binding signal (z-score),[24],-0.151
same,glycan array binding signal (z-score),[25],-0.128
same,glycan array binding signal (z-score),[26],-0.248
same,glycan array binding signal (z-score),[27],0.397
same,glycan array binding signal (z-score),[28],-0.185
same,glycan array binding signal (z-score),[29],-0.156
same,glycan array binding signal (z-score),[30],-0.005
same,glycan array binding signal (z-score),[31],-0.231
same,glycan array binding signal (z-score),[32],-0.288
same,glycan array binding signal (z-score),[33],-0.258
same,glycan array binding signal (z-score),[34],-0.446
same,glycan array binding signal (z-score),[35],-0.186
same,glycan array binding signal (z-score),[36],0.158
same,glycan array binding signal (z-score),[37],0.053
same,glycan array binding signal (z-score),[38],0.046
